Here are results for 52 compounds from ChEMBL document CHEMBL4888484, “Replenishing the malaria drug discovery pipeline: Screening and hit evaluation of the MMV Hit Generation Library 1 (HGL1) against asexual blood stage Plasmodium falciparum ,using a nano luciferase reporter read-out” (2022).

Molecules are shown by their SMILES. Among all 150,000 compounds or so, about 540 (0.36%) showed an effect of 50% or more. This is one part of the list.

The term % Inhibition denotes the change of the read-out against control, counted positive when it falls.

The assay has as its system Plasmodium falciparum. In words: Primary screen in NF54 nanoGlo assay, in single point, at 2uM, 72h; a lower Z score goes with more inhibition. It is filed as functional, Erythrocyte. To be noted: timepoint 72 hour.
Regarding `CC(C)O[C@@H]1CCN(C(=O)Nc2ccn(C3CCCCC3)n2)C1`, the “% Inhibition” value is -5% and the Z score is on record as 0.81.
On the same counts, the results for `CN(CC(=O)Nc1cccc(C(=O)O)c1)[C@H](c1ccccn1)C1CC1` are -9% and 1.24.
In the case of `O=C(CN(C1CC1)S(=O)(=O)c1ccc(F)c(F)c1)NC1CC1`, the “% Inhibition” value is given as -6% and the Z score is recorded as 0.9.
`CCCn1cc(NC(=O)N2CCOC(C)C2C)cn1` (centres undefined): the “% Inhibition” value turned out to be 0% and the Z score is recorded as -0.05.
The like results for `CC(C)(C)C(=O)Cn1c(=O)n(CC2CCC(C(=O)NC3CCCC3)CC2)c(=O)c2ccccc21` (centres undefined) were, in that order, -8% and 1.19.
For the compound `Cn1cc(OCC(=O)Nc2cc(Cl)cc(Br)c2O)cn1`, the “% Inhibition” value is recorded as -5% and the Z score came to 0.88.
Consider `Cc1ccc(Cl)cc1N1CCN(C(=O)C2CCN(c3ccc(N4CCC(C)CC4)nn3)CC2)CC1`, for which the “% Inhibition” value was -11% and the Z score came out at 2.02.
As to `CCCN(Cc1nnc(C2CCC2)o1)C1C2CCOC2C1(C)C` (centres undefined), the “% Inhibition” value is -4% and the Z score is 0.4.
Consider `CCn1ncnc1[C@H](C)NC(=O)Cn1nc(-c2ccccc2)n(CC)c1=O`, for which the “% Inhibition” value came out at 1% and the Z score is -0.1.
With `Cn1cc(S(=O)(=O)NC[C@@](C)(O)CCc2ccccc2)cn1`, the “% Inhibition” value is listed as -7% and the Z score was 1.16.
In the case of `COCc1n[nH]c(NC(=O)CN2C(=O)c3ccccc3N3C(=O)c4ccccc4[C@H]23)n1`, the “% Inhibition” value was -14% and the Z score was determined as 1.79.
`Cc1ccc2c(c1)CCCN2C(=O)c1ccc2ccccc2n1`: the “% Inhibition” value is listed as -7% and the Z score stood at 1.15.
As for `CC1(C)CN(C(=O)CCn2cnnn2)CC[C@]1(C)O`, the “% Inhibition” value is recorded as -16% and the Z score amounted to 1.55.
Turning to `COCCC(=O)N(C)c1ccc(Br)c(C)c1`, the “% Inhibition” value is -16% and the Z score came out at 1.49.
In the case of `COCCn1cc(C(=O)NC[C@@]23CCC[C@@H]2OCC3)c(C)n1`, the “% Inhibition” value is given as -6% and the Z score stood at 1.08.
Consider `Cc1ccc(CNC(=O)CNC(=O)c2ccc(F)cc2F)n1C`, for which the “% Inhibition” value is listed as -3% and the Z score was determined as 0.66.
With `CCNc1ncc(CN2CC[C@]3(OC)CC[C@@H](OCCO)C[C@H]23)cn1`, the “% Inhibition” value was -3% and the Z score came to 0.54.
For the compound `O=C(CCc1ccncc1)N(Cc1ccccc1)[C@H]1CCS(=O)(=O)C1`, the “% Inhibition” value was -9% and the Z score is listed as 1.53.
Turning to `COc1ccc2nc(C)c(C(=O)OCC(=O)N3CCC(Cc4ccccc4)CC3)cc2c1`, the “% Inhibition” value is reported as 2% and the Z score is reported as -0.26.
For the compound `Cc1nc(C2CCNCC2)cc(N(C)Cc2cc(-c3ccccc3)on2)n1`, the “% Inhibition” value was -14% and the Z score is on record as 2.85.
Take `CCC(=O)N(CC(=O)Nc1cc(N2CCN(C(=O)NC(C)C)CC2)ccc1Cl)Cc1ccc(F)cc1`: the “% Inhibition” value was -21% and the Z score is reported as 2.22.
For the compound `CCOC(=O)C1CCCN(C(=O)C(NC(=O)c2ccc(Cl)cc2Cl)C(C)C)C1` (centres undefined), the “% Inhibition” value came out at 1% and the Z score is -0.13.
As to `C[C@H](O)c1cc2n(n1)CCN(S(=O)(=O)Cc1cc(F)ccc1Cl)C2`, the “% Inhibition” value is -10% and the Z score was 0.99.
For the compound `CC[C@H](NC(=O)N1CCNC(=O)CC1)C(C)(C)c1ccccc1`, the “% Inhibition” value amounted to 0% and the Z score was 0.07.
Consider `Cc1cnn(CCC(=O)N2CCN(C(=O)CCn3cc(C)cn3)[C@H](C(=O)N(C)C)C2)c1`, for which the “% Inhibition” value is on record as -6% and the Z score was 0.56.
The like results for `CC1CCN(C[C@H]2CCCCCN2C(=O)NC2CCCC2)CC1` were, in that order, -2% and 0.34.
Turning to `O=c1ccn(-c2ccccn2)n1CC1C[C@@H]2C=C[C@H]1C2` (some centres undefined), the “% Inhibition” value is reported as -15% and the Z score amounted to 1.96.
For the compound `Cc1[nH]nc(C(F)(F)F)c1NS(=O)(=O)c1cccs1`, the “% Inhibition” value is reported as 33% and the Z score is -0.43.
Consider `CCCn1cc(CNc2cccnc2-n2cccn2)cn1`, for which the “% Inhibition” value is recorded as -8% and the Z score is recorded as 1.13.
The like results for `CC(C)[C@H](NC(=O)c1cc(O)ccn1)C(=O)NC1CCCCC1` were, in that order, -5% and 0.48.
Turning to `FC(F)(F)Cn1nc(C2CCOCC2)nc1-c1scc2c1OCCO2`, the “% Inhibition” value is recorded as -7% and the Z score is listed as 0.69.
The like results for `Cc1nccn1-c1cc(N2CCN(C)CC2)nc2ccnn12` were, in that order, 0% and -0.05.
Consider `CCc1cc(-c2n[nH]c(CC)c2-c2nnc(-c3ccccc3)s2)c(O)cc1OC`, for which the “% Inhibition” value was 3% and the Z score is reported as -0.38.
The like results for `CC(C)n1ncc(C(=O)N[C@@H](C)C(=O)NCc2ccccc2)c1C(F)(F)F` were, in that order, -9% and 1.38.
The like results for `CC(C)Cn1c(=O)c2sccc2n(CC(=O)Nc2ccc3c(c2)CCC3)c1=O` were, in that order, -6% and 0.83.
For the compound `Cc1noc([C@@H]2CN(Cc3ccncc3F)C[C@H]2C(N)=O)n1`, the “% Inhibition” value was found to be 3% and the Z score is reported as -0.47.
For the compound `Cc1occc1C(=O)NC[C@](C)(O)C1CCCCC1`, the “% Inhibition” value was -4% and the Z score is listed as 0.54.
As for `CCc1cc(C(=O)Nc2cc(C)on2)no1`, the “% Inhibition” value is listed as -10% and the Z score is recorded as 1.1.
For `COc1ccc(C[C@H]2CCOC3(CCN(C(=O)Cc4cccc(F)c4)CC3)C2)cc1`, the “% Inhibition” value is reported as -3% and the Z score came to 0.38.
Regarding `Cc1nn(C)c2nc(N[C@H](c3cccnc3)C(F)(F)F)sc12`, the “% Inhibition” value came to 13% and the Z score was -1.64.
With `COC[C@@H](O)CN(C)C(=O)c1n[nH]c2ccccc2c1=O`, the “% Inhibition” value was found to be 1% and the Z score is recorded as -0.16.
`CCCC1(C(=O)O)NC(c2ccccc2O)C2C(=O)N(c3cccc4ccccc34)C(=O)C21` (centres undefined): the “% Inhibition” value is on record as -4% and the Z score was 0.52.
`Cc1c(C2NC(=O)C3CCCCN32)cc(C#N)n1C` (centres undefined): the “% Inhibition” value is -15% and the Z score is listed as 1.31.
Consider `Cc1ccc2cc1Oc1cccc(c1)CO[C@H]1CN(C(=O)Cn3nc(C)c(C)cc3=O)C[C@@H]1NC(=O)CN(C)C2=O`, for which the “% Inhibition” value was -8% and the Z score was 1.66.
Regarding `CCc1ccc(C(=O)N[C@H]2CCc3nccn3C2)o1`, the “% Inhibition” value is -14% and the Z score stood at 2.1.
Turning to `Cc1cc(C2CCC2)nc(-c2cccc(C(=O)N(C)Cc3cccnc3)c2)n1`, the “% Inhibition” value is given as -3% and the Z score turned out to be 0.46.
`Cc1nc(C(C)C)ncc1C(=O)N1CC[C@@H]2OCc3cccc(c3)Oc3ccc(cc3)CCC(=O)N(CCCO)CC(=O)N[C@H]2C1`: the “% Inhibition” value is on record as -1% and the Z score is 0.18.
For the compound `Fc1ccccc1-c1noc(C2CCC(N3CCOCC3)CC2)n1` (centres undefined), the “% Inhibition” value is 0% and the Z score is -0.09.
Turning to `O=C1NCCN(Cc2cccc3ccccc23)[C@H]1CC(=O)N1CCCC1`, the “% Inhibition” value was -9% and the Z score turned out to be 1.81.
In the case of `CCc1nc([C@@H]2CCCN2c2ncnc3ccsc23)no1`, the “% Inhibition” value is given as -19% and the Z score came to 2.08.
Turning to `CCCn1ccnc1C(F)(F)C(=O)N[C@H]1CCN(c2ccc(Cl)cc2)C1=O`, the “% Inhibition” value is given as -14% and the Z score was found to be 1.46.
The like results for `C[C@H](O)c1cn(C2CN(C(=O)c3c[nH]nc3-c3ccc(F)c(Cl)c3)C2)nn1` were, in that order, -10% and 1.08.
